Test results published in PMC4336329 (PLoS ONE, 2015).
Out of some 310,000 compounds screened, about 14,000 (4.5%) showed an effect of 50% or more. Effects have a minus sign here. The list shows a part of the results.

molecular target: human ether-à-go-go-related gene (hERG) potassium channel (human, UniProt Q12809); experiment: primary screen, population patch clamp on CHO cells stably expressing hERG
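Also: peak tail current of the secondary pulse compared with the same well before compound.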

human ether-à-go-go-related gene (hERG) potassium channel, sequence (Q12809 whole entry, looked up): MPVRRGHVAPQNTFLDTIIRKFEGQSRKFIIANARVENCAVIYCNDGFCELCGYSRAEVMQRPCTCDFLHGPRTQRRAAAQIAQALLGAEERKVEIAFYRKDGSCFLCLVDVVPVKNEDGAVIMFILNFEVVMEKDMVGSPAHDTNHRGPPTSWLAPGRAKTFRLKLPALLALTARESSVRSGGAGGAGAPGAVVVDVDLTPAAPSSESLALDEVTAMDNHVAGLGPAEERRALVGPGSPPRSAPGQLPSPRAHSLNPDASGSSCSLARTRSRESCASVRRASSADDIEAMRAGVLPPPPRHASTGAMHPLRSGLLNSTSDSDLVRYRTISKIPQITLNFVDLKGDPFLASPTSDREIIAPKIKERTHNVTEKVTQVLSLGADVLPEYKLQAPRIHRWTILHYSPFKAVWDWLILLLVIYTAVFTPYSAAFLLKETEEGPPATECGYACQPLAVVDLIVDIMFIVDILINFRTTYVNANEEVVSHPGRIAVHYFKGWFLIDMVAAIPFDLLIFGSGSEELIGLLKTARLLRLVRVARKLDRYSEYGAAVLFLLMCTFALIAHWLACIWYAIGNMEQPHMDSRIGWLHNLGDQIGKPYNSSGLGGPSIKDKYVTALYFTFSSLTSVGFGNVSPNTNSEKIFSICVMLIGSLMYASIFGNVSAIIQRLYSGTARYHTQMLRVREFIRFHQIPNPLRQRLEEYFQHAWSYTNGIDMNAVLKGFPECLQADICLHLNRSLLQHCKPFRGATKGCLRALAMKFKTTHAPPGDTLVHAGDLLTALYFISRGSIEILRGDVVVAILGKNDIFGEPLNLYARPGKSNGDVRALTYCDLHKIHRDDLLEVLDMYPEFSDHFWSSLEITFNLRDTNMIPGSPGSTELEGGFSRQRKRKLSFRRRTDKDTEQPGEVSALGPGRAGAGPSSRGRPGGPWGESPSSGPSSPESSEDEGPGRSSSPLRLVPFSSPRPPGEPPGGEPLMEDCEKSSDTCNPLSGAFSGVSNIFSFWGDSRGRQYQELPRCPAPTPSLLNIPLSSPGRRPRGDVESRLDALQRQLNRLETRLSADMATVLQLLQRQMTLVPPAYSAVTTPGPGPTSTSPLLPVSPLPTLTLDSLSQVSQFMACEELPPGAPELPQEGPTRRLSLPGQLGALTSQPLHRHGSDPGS

Compound | hERG current change (%, negative = inhibition) at 10uM
NS(=O)(=O)c1cccc(NC(=O)/C=C/c2cccs2)c1 | 4.08%
CCOC(=O)C1CCCCN1C(=O)CCc1c(C)nc2ncnn2c1C (centres unmarked) | 1.42%
Cc1ccc(NC(=O)Cc2nnc(SCC(=O)NC3=NCCS3)n2C)cc1 | 12.4%
COc1cccc(C2=NN(C(=O)c3ccco3)C(c3ccco3)C2)c1 (centres unmarked) | -23.8%
CC(C)C[C@H](NC(=O)Nc1cccc(C(F)(F)F)c1)C(=O)O | 2.53%
CCC(=O)NC(c1ccc(OC)cc1)c1cc(Cl)c2cccnc2c1O (centres unmarked) | 31.8%
COc1ccc(/C=N/N2CCN(C)CC2)cc1OC | 7.33%
COc1ccc(CCC(=O)Nc2c(C)n(C)n(-c3ccccc3)c2=O)cc1 | 23.7%
c1coc(-c2nnc3sc(Cc4cccs4)nn23)c1 | -22.9%
O=C(COC(=O)c1cnccn1)NCc1ccccc1 | 12.3%
COCCNC(=O)C1CCCN(S(=O)(=O)c2ccc3c(c2)CC(C)N3C(=O)C2CC2)C1 (centres unmarked) | -8.97%
CCN(CC)CCC(c1ccc2c(c1)OCO2)c1c(O)cc(OC)cc1OC (centres unmarked) | -73.4%
CCn1cc(CCCC(=O)NCc2ccc(OC)cc2)c2ccccc21 | 1.54%
CCOC(=O)c1c[nH]c(=O)c(Br)c1O | 17.4%
Cc1cccc(OCC(=O)Nc2ccc(C(=O)NCC(C)C)cc2)c1 | -0.384%
CCOC(=O)c1ccc(N2C(=O)c3n[nH]c(C)c3C2c2ccccn2)cc1 (centres unmarked) | -8.28%
CCC(C)(C(=O)NC1CCCC1)N(C(=O)CC1NC(=O)NC1=O)c1ccc(C)cc1 (centres unmarked) | 3.09%
CC(OC(=O)c1nc(Cl)ccc1Cl)C(=O)NC1CCCCC1C (centres unmarked) | 13.8%
O=C(CSc1ccccc1)N1CCCC(N2CCN(c3ccc(F)cc3)CC2)C1 (centres unmarked) | -75.3%
COc1ccc(Cl)cc1NC(=O)Cc1c(F)cccc1Cl | 6%
CC(C)C(=O)Nc1nnc(SCC(=O)N2c3ccccc3CC2C)s1 (centres unmarked) | 5.13%
Cc1ccc(-n2c(SCC(=O)OC(C)C)nnc2-c2cnccn2)cc1 | 0.436%
Cc1ccc(C)c(OCCC(=O)Nc2cccc(S(=O)(=O)N3CCCCC3)c2)c1 | -24.3%

Compound | hERG current change (%, negative = inhibition) at 10uM
CCC(C)NC(=O)NCc1ccccc1F (centres unmarked) | 14%
COC(=O)C1=C(C)N(Cc2ccccc2)C(=NCc2ccccc2)N[C@H]1c1cccc(F)c1 | -11.5%
COc1cc2cc(C(c3nnnn3C3CCCCC3)N(C)C3CCCCC3)c(=O)[nH]c2cc1OC (centres unmarked) | -21.7%
O=C(O)C1=C[C@H](c2coc3ccccc3c2=O)C[C@H](OCCCCO)O1 | 3.91%
Cc1onc(-c2ccccc2)c1C(=O)n1nnc2ccccc21 | 8.17%
CS(=O)(=O)c1nc(S(=O)(=O)c2ccc(Cl)cc2)c(NCCCN2CCOCC2)s1 | -46.8%
O=C(CS(=O)(=O)Cc1ccccc1)Nc1ncccn1 | 11.3%
O=C(CCCCCN1C(=O)c2ccccc2C1=O)Nc1nccs1 | -7.89%
CCN(CC)S(=O)(=O)c1ccc(C(=O)N2CCCCC2)cc1 | 26.7%
CC1C(=O)Nc2ccccc2N1C(=O)c1ccccc1 (centres unmarked) | 11.5%
COc1ccc(-c2ccc(-c3noc(-c4cccs4)n3)c(OC)n2)cc1 | 3.26%
CC#CC[N+](C)(C)CCCCCCCCCC.[Br-] | -48.8%
Cc1oc(-c2ccoc2)nc1CN(CC1CCC(=O)N1)C(C)C (centres unmarked) | 31.4%
COc1ccc(CNC(=O)C(c2ccco2)N(C(=O)c2snc(C(N)=O)c2N)c2cccc(OC)c2)cc1 (centres unmarked) | 5.93%
COc1ccc(N2CCN(C(=O)NC(=O)c3ccccc3)CC2)cc1 | 4.85%
O=C(Nc1cc(C(=O)N2CCCC2)ccc1N1CCCC1)c1ccccc1 | -75.6%
COc1ccccc1NC(=O)Cc1ccsc1 | 10.3%
COc1ccc(CCNC(=S)NCCc2ccc(OC)c(OC)c2)cc1OC | 5.11%
Cc1c(/C(O)=C2\C(=O)C(=O)N(CCN(C)C)C2c2cccnc2)cnn1-c1ccccc1 (centres unmarked) | -3.57%
COc1ccc(NC(=O)Nc2ccccc2SC)cc1OC | 6.08%
CN1CCN(c2c(F)cc3c(=O)c(C(=O)[O-])cn4c3c2OCN4C)CC1 | 23.8%
COc1ccc(OCc2cc(C(=O)N(C)CC3CCCCO3)no2)c(Cl)c1 (centres unmarked) | -17.4%
COc1ccccc1NS(=O)(=O)c1cc(NC(=O)CN2C(=O)NC3(CCCC3)C2=O)ccc1C | -11.6%

Compound | hERG current change (%, negative = inhibition) at 10uM
COC(=O)c1ccccc1NC(=O)C1CCCC1 | -12.5%
CC(=O)c1c(N2CCN(Cc3ccccc3)CC2)nc(=S)n(-c2ccccc2)c1C | 4.37%
Cc1ccc(Cl)c(OCCN2CCCC(C)C2)c1.O=C(O)C(=O)O (centres unmarked) | -41.8%
COc1ccccc1N1CCN(c2nc(N)c(C#N)c(CC#N)c2C#N)CC1 | -42.7%
O=C(Cc1c(F)cccc1Cl)Nc1cccc(S(=O)(=O)NC2=NCCCCC2)c1 | -4.28%
CCS(=O)(=O)N1Cc2ccccc2CC1C(=O)N1CCN(c2ccccc2)CC1 (centres unmarked) | -20.6%
CCCNC(=O)c1ccc(Cn2c(=S)[nH]c3c([nH]c4ccc(OC)cc43)c2=O)cc1 | -6.89%
CC(CN1C(C)CCCC1C)OC(=O)c1ccc(F)cc1.Cl (centres unmarked) | -6.06%
Cc1ccc(CC(=O)N(Cc2ccccc2)c2ccccn2)cc1 | -43.8%
COc1ccc(/C=N/NC(=O)c2cccnc2)cc1CN1CCc2ccccc2C1 | -17.9%
COc1ccc(C(=O)C(CCCCC(CN(C)C)C(=O)c2ccc(OC)cc2)CN(C)C)cc1.Cl (centres unmarked) | -2.07%
CC(C)[C@H]1C(=O)Nc2ccccc2N1C(=O)N[C@@H](Cc1ccccc1)C(=O)N[C@@H](Cc1ccccc1)C(=O)O | 5.66%
CC(=O)Nc1ccc(S(=O)(=O)N(Cc2ccccc2)c2ccccc2)cc1 | 2.21%
O=C(Nc1ccccc1C(=O)Nc1ccncc1)c1cccc([N+](=O)[O-])c1 | -18.8%
CC(C)c1ccccc1N1CC(C(=O)O)CC1=O (centres unmarked) | 15.1%
Cc1cc(C)nc(N/N=C/c2c(CO)cnc(C)c2O)n1 | -10.7%
Cc1cccc(S(=O)(=O)C(C#N)c2nc3ccccc3nc2N2CCOCC2)c1 (centres unmarked) | -0.383%
CCOC(=O)CSc1nccc(N(C)C)c1C#N | 3.83%
CCOC(=O)c1ccc(NC(=O)c2ccccc2)cc1 | 3.86%
Cc1ccc(S(=O)(=O)Nc2nc(C)c(NC(=O)Nc3ccc(Cl)cc3Cl)s2)cc1 | 10.6%
CCOC(=O)N1CCN(S(=O)(=O)c2ccc(OC)c(Cl)c2Cl)CC1 | -8.27%
CN(Cc1c(C(=O)N/N=C/c2cc(F)ccc2F)nnn1-c1nonc1N)C1CCCCC1 | 6.44%
CC(C)c1ccc(S(=O)(=O)Nc2ccc(O)c(Sc3ncn[nH]3)c2)cc1 | -6.1%

Compound | hERG current change (%, negative = inhibition) at 10uM
Cc1nn(Cc2ccccc2)c(Cl)c1/C=N/NC(=O)c1cccnc1 | -3.29%
Cc1ccc(CNC(=O)CCNC(=O)Cn2ccc3ccccc3c2=O)o1 | 10.1%
Cc1ccc(OCc2ccc(C(=O)Nc3c(C)nn(Cc4c(F)c(F)c(F)c(F)c4F)c3C)o2)c([N+](=O)[O-])c1 | -28.2%
COc1cc(C(=O)NNC(=O)C2CC2)cc(OC)c1OC | 13.7%
Cc1nc(CNS(=O)(=O)c2ccc(Br)cc2)cs1 | 26%
COc1cc(/C=C/C(=O)N2CCc3ccccc3C2)cc(OC)c1OC | -15.8%
CCOc1ccccc1CN1CCC(N2CCOCC2)CC1.O=C(O)C(=O)O | 16.9%
COc1ccc(S(=O)(=O)NC2CC3CCC2C3)cc1 (centres unmarked) | 15.4%
O=S(=O)(NCc1ccccc1)c1ccc2ccccc2c1 | 18.2%
CCn1c(NC2CCCCC2)nc2ccccc21 | -15%
CC1(C)C(=O)N(CCN2CCC(C(=O)c3ccc(F)cc3)CC2)c2ccccc21.Cl | -70.5%
COc1ccc(N2CCN(C3CCCN(C(=O)c4cccc(C)n4)C3)CC2)cc1 (centres unmarked) | 0.82%
Cc1cccc(C)c1NC(=O)CNC(=O)Cn1nc(C)c(C)c(C#N)c1=O | 9.86%
O=C(NCCCn1ccnc1)c1cc([N+](=O)[O-])cc([N+](=O)[O-])c1 | -4.05%
COCCN(C(=O)COC(=O)c1cccs1)c1c(N)n(Cc2ccccc2)c(=O)[nH]c1=O | 8.82%
O=C(Nc1ncn[nH]1)c1c(Cl)ccc(Cl)c1Cl | 3.73%
O=C(Cc1ccccc1)N1CCNCC1.O=C(O)C(=O)O | 27.9%
COc1ccc(C(=O)OCCN2CCCCC2)cc1.Cl | 0.271%
C1CNCCOCCNCCN1 | -1.69%
Cc1onc(-c2ccccc2)c1C(=O)NCc1cccc(Cl)c1 | 15%
